Measured values from the supplement of paper PMC11417369.
The other results are listed elsewhere or left out.

Tested on: PF3D7_0420300 AP2 domain 1 (GST-tagged)
Assay: gcPBM binding intensity (ln(normalized median fluorescence intensity)); higher = stronger DNA binding
Procedure, shortened: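 GST-fused DNA-binding domains of P. falciparum, expressed in E. coli, were applied at about 25 μg on average for 1 h to an Agilent 4 × 180k array of primer-extended double-stranded 36-bp intergenic genomic probes and negative controls. Binding intensity is the highest Masliner-normalised natural-log median intensity across replicate spots of either probe orientation, measured with Alexa488 anti-GST antibody and a 488 nm scan.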

Sequence	gcPBM binding intensity (ln)
ACAAATACTAACAACGCATGTAAGCCTACAATAAAT [TGCATGCA_site551]	9.52
TTTTTTTTCTAAATTATATGAAAATATATGTTATGT [GTGCAC_negctrl_site85]	9.09
TACATAAACATTTATACACACATTATAAATACATAT [CACACA_site4386]	9.73
ATTTTCTATTTTATTTGTACGTAATTTAATTTTTTT [XGTACX_site3609]	9.59
ACAATTTTAAAATGAACACACATGTTTTTCTTACTT [CACACA_site1014]	9.42
AAGTAATTTGTTGACACACACACACGCATACCTATA [CACACA_site7140]	10.2
TCCCAATTTCTATCCTGTACAGACATAAATATATAC [XGTACX_site5937]	9.34
ATAAATCCATGTAACTGTACTTTTTTTTTTTTTTTT [XGTACX_site7373]	9.33
TTTTGAAATTTTTGTGTTTTTCCTTTTTATTTTATA [CACACA_negctrl_site1740]	9.46
ATAAAGATTAATAAAATAAAATTCCGCAAACATATA [CACACA_negctrl_site244]	9.33
AGATAGCTATTAAAAAGTACAAAAAAATATATATAT [XGTACX_site6289]	9.37
ATAAATACAGATATTACACACTTCTTATTCTAAGAA [CACACA_site5640]	9.24
TATACAGGAATATTTTTACACACTAATAATTATAAA [CACACA_site8477]	9.35
TATTTACAACAAATTTAATTATTTTTAACTTATAAA [GTGCAC_negctrl_site259]	8.8
TATTTTATATAAAGGTGTACTTATACAAAAATATAT [XGTACX_site7435]	9.07
TTTTTTCAAATTATTCGATATGTAAAAAAATAAAAT [GTGCAC_negctrl_site241]	8.83
AAATATTTGTGTGGTTGTACTATAATGATAAAAATA [XGTACX_site7703]	9.3
TTTTTTTTTTTTGAGTGTACAAGATTGTTGTTCCAA [XGTACX_site6120]	9
CATACATACAAACACACACACATATATATATATATA [CACACA_site43]	9.86
TTATATTATATATATATTATATATATGTATGCATAA [TGCATGCA_negctrl_site481]	9.02
GGTTTGAATTTTTAAGTGCATATAACATAAATGAAA	8.98
ATCCTCTTTTTAAGTTGTACAGGGTCGAAAAAAAAA [XGTACX_site6852]	8.94

Sequence	gcPBM binding intensity (ln)
GATTATTATTATAAGGGTACAAATATTTAATAAAAA [XGTACX_site7144]	9.21
CATGTCAAAATTATACGTACATATATAAGTTCCATT [XGTACX_site6331]	9.29
AAAAAAAAATAAAAAAGTACATTCATTTTATAAGAT [XGTACX_site3507]	9.07
TTTAATTCTTATATTTGTACAGATTCATAATTAAAT [XGTACX_site7465]	9.01
CGTTTATTAAACTTGACACACACACCCCCACATATA [CACACA_site8151]	9.91
TATATATATATATATGCATGCCATATGATATATATA [TGCATGCA_site109]	9.01
AATCGATAACAATGTAGTACCAGAAAAATAAATATT [XGTACX_site8501]	9.57
TCATATTTACAAAAAGGTATTAATAAATAAAATATT [CACACA_negctrl_site259]	9.09
AATAAGTGTTGATTCTTAAAATGACCATATAATAAT [TGCATGCA_negctrl_site221]	9.09
TATCTTTTATAAGTGACACACATAAATATTTAAATT [CACACA_site833]	9.21
ATATTAGGGTCATGAACACACAAAAAAAAAAAAAAA [CACACA_site937]	9.1
GCTATCATATCATGTTGTACACAACCTCAAAATGAA [XGTACX_site8757]	9.12
AATTATAATAAATAACGTACAAAAAATAAATTATTT [XGTACX_site3627]	9.35
ATAAAAATAAAATGGACACACATATATACATATTTG [CACACA_site3277]	9.68
ATAAGCGAATATATATCACACACAAAAAAATCAGAC [CACACA_site8657]	10.1
TATATATTCATGTGTACACACAAAAAAAAATAAAGT [CACACA_site2207]	9.92
TTTTTTTTTGATATTTGTACTTAAGTAAATATTATA [XGTACX_site3843]	9.11
ATATTACACAGATATGCACACATTGTAGTTATTTAT [CACACA_site5454]	9.66
AAAAAGGAAATTTACACACACATATAACATACATTA [CACACA_site7534]	9.94
ATTATATCACTGTGTTGTACTTCTTATATAAAAATA [XGTACX_site2333]	9.36
ACATATCGGGTGCATTAACACACATTTATTTGAATA [CACACA_site8736]	9.31
TCCGTATAATTTTGCACACGAATATAAATTTGATAA [CACACA_site136]	9.18
